{"source": "paper PMC12040169", "about": "(PLOS Biology, 2025)", "note": "The other results are listed elsewhere or left out."}
{"tested_on": "T1, C. trachomatis L2/434/Bu expressing GFP (CTL2-GFP)", "T1 construct": "L2/434/Bu GFP intracellular growth in HeLa cells", "set-up": "species or system HeLa; C. trachomatis total inclusion area by high-content imaging, normalised to DMSO", "details": "total inclusion area; 28.5 h, 10 µM; inhibitor", "how_it_was_run": "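Imaging read-out: GFP inclusions and Hoechst nuclei captured by high-content imaging after fixation. Inclusion area/number = chlamydial growth; nuclei count = host cell viability. MIC calculated per earlier method.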"}
{"smiles": "FC(F)(F)c1ccc(OCCN2CCNCC2)nc1", "note": "[CBK113462]", "% of control remaining": 105.575}
{"smiles": "Clc1nc2ccccc2nc1OCCOc1ccccc1", "note": "[CBK113367]", "% of control remaining": 105.568}
{"smiles": "COCCNc1nc(-c2ccoc2)cn2ccnc12", "note": "[CBK066416]", "% of control remaining": 117.72}
{"smiles": "CC(=O)Nc1ccc(NC(=O)c2cc(-c3ccc(Cl)cc3Cl)nc3ccccc23)cc1", "note": "[CBK265080]", "% of control remaining": 110.388}
{"smiles": "O=C(CSc1nc2ccccc2[nH]1)n1c2c(c3ccccc31)CCCC2", "note": "[CBK263945]", "% of control remaining": 67.8375}
{"smiles": "CN1C(=O)/C(=C2\\SC(=S)N(C(Cc3ccccc3)C(=O)O)C2=O)c2ccccc21", "note": "(stereo not drawn) [CBK263507]", "% of control remaining": 104.461}
{"smiles": "Cn1cc(C(Nc2cccc(C#N)n2)[C@H]2C[C@H](O)C2)cn1", "note": "(stereo partly drawn) [CBK307011]", "% of control remaining": 101.958}
{"smiles": "O=C(O)c1cccc(NS(=O)(=O)c2ccccc2)c1", "note": "[CBK155710]", "% of control remaining": 108.427}
{"smiles": "CCCC/C=C/c1nccnc1NCc1cccs1", "note": "[CBK038090]", "% of control remaining": 116.272}
{"smiles": "CCOC(=O)c1c(C)nc(-c2ccccc2)nc1NC(=O)C(C)C", "note": "[CBK028118]", "% of control remaining": 107.994}
{"smiles": "COc1cccc(N2CCN(CCCOc3ccc(F)cc3)CC2)n1", "note": "[CBK010355F]", "% of control remaining": 64.6191}
{"smiles": "CN(C)Cc1ccccc1C(O)c1ccccc1", "note": "(stereo not drawn) [CBK261277]", "% of control remaining": 107.925}
{"smiles": "O=C(O)Cn1c(=O)[nH]c2c(-c3ccccc3)c[nH]c2c1=O", "note": "[CBK287218]", "% of control remaining": 96.4798}
{"smiles": "O=C(Nc1cccnc1)c1ccc(F)cc1Cl", "note": "[CBK288246]", "% of control remaining": 75.2738}
{"smiles": "C=C(C)CN1CCN(CC(CC(=O)NCc2ccccc2)C(=O)O)CC1", "note": "(stereo not drawn) [CBK286823]", "% of control remaining": 108.346}
{"smiles": "CCN(CC)C1CCN(C(=O)Nc2cc(NC(C)=O)ccc2F)C1", "note": "(stereo not drawn) [CBK305207]", "% of control remaining": 57.6791}
{"smiles": "Cc1ccccc1NC(=O)CCC(=O)N/N=C/c1ccncc1", "note": "[CBK262016]", "% of control remaining": 102.058}
{"smiles": "CC(C)c1noc(NCCc2cn3c(n2)CCCC3)n1", "note": "[CBK306444]", "% of control remaining": 54.277}
{"smiles": "O=c1[nH]c(=O)c2cc(S(=O)(=O)N3CCCCC3CN3CCCCC3)ccc2[nH]1", "note": "(stereo not drawn) [CBK286393]", "% of control remaining": 114.028}
{"smiles": "CCOC(=O)c1cn[nH]c1N", "note": "[CBK175217]", "% of control remaining": 44.0228}
{"smiles": "CCOc1ccc(CN2CCN(C(=O)c3ccc(-c4ccccc4)cc3)CC2)cc1", "note": "[CBK263399]", "% of control remaining": 88.0437}
{"smiles": "CC(CC(=O)N1CCC(Oc2ccccc2F)CC1)n1cccn1", "note": "(stereo not drawn) [CBK282118]", "% of control remaining": 91.9986}
{"smiles": "FC(F)(F)c1nnc(-c2cc3sccc3s2)o1", "note": "[CBK006303]", "% of control remaining": 81.0758}
{"smiles": "CCn1ncc(S(=O)(=O)N2CCCC(c3cccc(-c4cccc(OC)c4)n3)C2)c1C", "note": "(stereo not drawn) [CBK286155]", "% of control remaining": 100.713}
